Results: PubChem BioAssay (Tox21)
This list was built around the results that the source calls inconclusive (neither active nor inactive); the mix of calls is not that of the screen. For some of these results: Potencies of inconclusive entries are left out as doubtful fits. Active and inactive are the calls of the source. Unless noted, calls come from the whole dose curve; as a rule, active = well fitted cell-killing curve with a large enough effect in the repeat runs; inconclusive = weak or mixed curves; inactive = no such curve, though single readings can be large or run the other way.

Test: qHTS assay for small molecule activators of the heat shock response signaling pathway (AID 743210; active = well fitted activation curve with a large enough effect in the signal ratio in the repeat runs, with a control signal flat, not every such curve was filed as active; inconclusive = weak or mixed curves; the % refers to the signal ratio)
Conditions: HeLa HSE-bla reporter, beta-lactamase ratio, 5 h; activation: at 62.6 µM (top of the series) unless noted
Method in brief: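 Compound exposure lasted 5 h at 37 C in HeLa cells carrying a heat-shock-element-driven beta-lactamase reporter. Read-out: fluorescence intensity after 2.5 h room-temperature loading with LiveBLAzer B/G FRET substrate.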
% is set by controls: 0 for no effect and ±100 for the full control effect; tags give direction and shape of the fitted curve.

| Structure (SMILES) | activation | Potency |
| --- | --- | --- |
| CCCCOC(=O)c1ccccc1C(=O)OCC(CC)CCCC (stereo unspecified) | inactive: -1.8% |  |
| O=S(=O)(O)c1cccc2ccccc12 | inactive: -1.42% |  |
| OB(O)O |  | inactive |
| COC(=O)CCSCCC(=O)OC | inactive: 0.0861% |  |
| Cn1ccc2cc3c(cc21)CCN3C(=O)Nc1cccnc1 | inactive: -0.465% [at 29.1 µM] |  |
| O=C(OC1C[C@H]2CC[C@@H](C1)[N+]21CCCC1)C(O)(c1ccccc1)c1ccccc1 (stereo partly specified) | inactive: -0.738% |  |
| CC1(C)O[C@@H]2C[C@H]3[C@@H]4CCC5=CC(=O)C=C[C@]5(C)[C@H]4[C@@H](O)C[C@]3(C)[C@]2(C(=O)CO)O1 | inactive: -0.225% |  |

Test: qHTS assay to identify small molecule agonists of the peroxisome proliferator-activated receptor delta (PPARd) signaling pathway - cell viability counter screen (AID 743211); note: nearly all actives have a fitted effect of over 55% in size; note: potency is the fitted concentration of half-maximal effect
Conditions: PPARd-bla HEK293H viability, CellTiter-Glo luminescence, 17 h; activity change, negative = cytotoxicity: at 62.6 µM (top of the series)
Method in brief: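 Counter screen for cytotoxicity run in parallel with the PPARd reporter screen. Beta-lactamase reporter HEK293H cells exposed to compounds 17 h; ATP-based CellTiter-Glo luminescence quantified viability.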

| Structure (SMILES) | Potency | activity change, negative = cytotoxicity |
| --- | --- | --- |
| CCCCCC/C=C/C=O | inconclusive [cytotoxic, partial curve, poor fit] |  |
| Cc1ccc(/C(=C\CN2CCCC2)c2ccccn2)cc1 | inconclusive [cytotoxic, full curve] |  |
| CC1CCC(=O)C1=O (stereo unspecified) | inconclusive [cytotoxic, full curve, poor fit] |  |
| CC(C)=CCC/C(C)=C/C(=O)O | inconclusive [cytotoxic, full curve, poor fit] |  |
| COc1ccc(N)c(OC)c1 | inconclusive [cytotoxic, partial curve, poor fit] |  |
| O=P(OC(CCl)CCl)(OC(CCl)CCl)OC(CCl)CCl | inconclusive [cytotoxic, single point] |  |
| CN(C)C/C=C(/c1ccc(Br)cc1)c1cccnc1 | inconclusive [cytotoxic, partial curve, poor fit] |  |
| CN(C)CCN(Cc1ccc(Cl)cc1)c1ccccn1 | inconclusive [cytotoxic, partial curve, poor fit] |  |
| OC[C@@H](O)C(O)[C@@H](O)CO (stereo partly specified) |  | inactive: 10% [at 81.1 µM] |
